From the RNAGym collection of RNA variant scans (doi:10.7554/elife.90254) come the findings set out here.

The source gives no read counts; variants with many changes may rest on few reads.

The labels stand for the following.
B1: LINE1-full (parent)
chain: UACGUAGGUGGUUUUCCCCUGAUAGUGCUAAGGGGGCCUGGAAGUUUGGACUGGGCAGAGCUCAACACAGCGUGGCAAAGUGGCUGUGGCUAGACUGCCUCUCUGGAUUCCUCGUCACUCAGCAGGGCAUCUCUGAGAGAAAUGCC

In the data set the parent is B1. Briefly: self-cleavage, relative activity (ratio to wild type); higher = more cleavage; in vitro, sequencing; the parent is a self-cleaving ribozyme.
Take UACGUAGGUGGUUUUCCCCUGAUAGUGCUAAGGGGGCCUGGAAGUUUGGACUGGGCAGAGCUCAACACAGCGUGGCAAGGUGGCUGUGGCUAGACUGCCUCUCUGGAUUCCCCGUCACUCAGCAGGGCAUAUCUGAGAGAAAUGCC [A79G U112C C131A]: the self-cleavage is 0.48. For UACGUAGGUGGUUCUCCCCUGAUAGUGCUAAGGGGGCCUGGAAGUUUGGACUGGGCAGAGCUCAACACAGCGUGGCAAAGUGGCUGAGGCUAGACUGCCUCUCUGGAUUCCUCGUCACUCAGCAGGGCUUCUCUGAGAGAAAUGCC [U14C U87A A129U], the self-cleavage amounted to 0.03. To UACGUGGGUGGUGUUCCCCUGAUAGUGCUAAGGGGGCCUGGAAGUUUGGACUGGGCAGAGCUCAACACAGCGUGGCAAAGUGGCUGUGGCUAGACUGCCUCUCUGGACUCCUCGUCACUCAGCAGGGCAUCUCUGAGAGAAAUGCC [A6G U13G U108C] belongs 1.34. The same measure for UACGUAGGUGGUUUUCACCUGAUAGUGCUAAGGGGGCCUGGAGGUUUGGACUGGGCAGAGCUCAACACAGCGUGGCAAAGUGGCUGUGGCUAGACUGCCUCGCUGGAUUCCUCGUCACUCAGCAGGGCAUCACUGAGAGAAAUGCC [C17A A43G U102G U132A]: 0.71. The same measure for UACGUAGGCGGUUUUCCCCUGAUAGUGCUAAGGGGGCCUGGAAGUUUGGACUGGGCAGAGCUCAACGCAGCGUGGCAAAGUGGCUGUGGCUAGACUGCCUCUCUGGAUUCCUCGUCACUCAGCAGGGCAUCUCUGAGAGAGAUGCC [U9C A67G A141G]: 0.76; for UACGUAGGUGGUUUUCCCCUGAUAGUGCAAAGGGGGCCUGGAAGUUUGGGCUGGGCAGAGCUCAACACAGCGUGGCAAAGUGGCUGUGGCUAGACUGCCUCUCUGGAUUCCUUGUCACUCAGCAGGGCAUCUCUGAGAGGAAUGCC [U29A A50G C113U A140G]: 0.14.

Regarding UACGUAGGUGGUUUUCCCCUGAUAGUGCUAAGGGGGCCUGGAAGUUUGGACUGGGCAGAGCUCAACACAGCGUGGCAAUGUGGCUGUGGCUAGACCGCCUCUCUGGAUUCCUCGUCACUCAGCAGGGCAUCUCUGAGAGAGAUGCC [A79U U96C A141G], the self-cleavage turned out to be 0.12. The same measure for UACGUAGGUGGUUUUCCCCUGAUAGUGCUAAGGGGGCCUGGAAGUUUGGACCGGGCAGAGCUCAACACAGCGUGGCAAAGUGGUUGUGGCUAGACUGCCUCUCUGGAUUCCUCGUCACUCAGCAGGGCAUCACUGAGAGAAAUGCC [U52C C84U U132A]: 0. As for UACGUAGGUGGUUUUCCCCUGAUAGUGCUAGGGGGGCCUGGAAGUUUGGACUGGGCAGAGCUCAACACAGCGUGGCAAAGUGGCUGUGGCCAGACUGCCUCUCAGGAUUCCUCGUCACUCAGCAGGGCAUCUCUGAGAGAAAUGCC [A31G U91C U104A], the self-cleavage stood at 1.13.

Take UACGUAGGUGGAUUUCCCCUGAUAGUGCUAAGGGGGCCUGGAAGUUUGGACUGGGCAGGGCUCGACACAGCGUGGCAAAGUGGCUGUGGCUAGACUGCCUCUCUGGAUUCCUCGUCACUCAGCAGGGCAUCUCUGAGAGAAAUGCC [U12A A59G A64G]: the self-cleavage came out at 0.12. Consider UACGUAGGUGGUUUUCCCCUGAUAGUGCUAAGGGGGCCUGGAAGUUUGGGCUGGGCAGAGCUCAACACAGCGUGGCAGAGUGGCCGUGGCUAGACUGCCUCUCUGGUUUCCUCGUCACUCAGCAGGGCAUCUCUGAGAGAAAGGCC [A50G A78G U85C A107U U143G], for which the self-cleavage worked out at 0. As for UACGUAGGUGGUUUUCCCCUGAUAGUGCUAAGAGGGCCUGGAAGCUUGGACAGGGCAGAGCUCAACACAGCGUGGCAAAGUGGCUGUGGCUAGACUGCCUCUCUGGACUCCUCGUCACUCAGCAGGGCAUCUCUGAGAGAAAUGCC [G33A U45C U52A U108C], the self-cleavage was 1.39. The same measure for UACGUAGGUGGUUUUCCCCUGAUAGUGCUAAGGGGGCCUGGAAGAUUGGACUGGGCAGAGCUCAACACAGCGUGGCAAAGUGGCUGUGGCUAGACUGCCUCUCUUGAUUCCUCGUCACUCUGCAGGGCAUCUCUGAGAGAAAUGCU [U45A G105U A121U C146U]: 1.64.

Take UACGUAGGUGGUUUUCCCCUGAUAGUGCUAAGGGGGCCUGGAAGUUUGGACUGGGCAGAGCUCAACACAGCGUGGCAAAGUGGCCGUGGCUAGACUGCCUCUCUGGAUUCCUCGUCACUCAGCGGGGCAUCUCUGAGAGGAAUGCC [U85C A124G A140G]: the self-cleavage amounted to 0.04. To UACGUAGGUGGUUUUCCCCCGAUAGUGCUAAGGGGGCCUGGAAGUUUGGACUGGGCAGAGCUCAGCACAGCGUGGCAAAGUGGCUGUGGCUAGACUGCCUCUCUGGAUUCCUCGACACUCAGCAGGGCAUCUCUGGGAGAAAUGCC [U20C A65G U115A A136G] belongs 0; to UACGUAGGUGGUUUUCCCCAGGUAGUGCUAAGGGGGCCUUGAAGUUUGGACUGGGCAGAGCUCAACACAGCGUGGCAAAGUGGCUGUGGCUAGACUGCCUCUCUGGAUUCCUCGUCACUCAGCAGGGCAUCUCUGAGAGAAAUGCC [U20A A22G G40U], 1.4; to UACGUAGGUGGUUUUUCCCUGAUAGUGCUAAGGGGGCCUGGAAGUUUGGACUGGGCAGAGCUCAACGCAGCGUGGCAAAGUGGCUGUGGCUAGACUGCCUCUCUGGAUUCCUCGUCACUCAGCAGGGCGUCUCUGUGAGAAAUGCC [C16U A67G A129G A136U], 1.35. AACGUAGGUGGUUUUCCCCUGAUAGUGCUAAGGGGGCCUGGAAGUUUGGGCUGGGCAGAGCUCAACACGGCGUGGCAAAGUGGCUGUGGCUAGACUGCCUCUCUGGAUUCCUCGUCACUCAGCAGGGCAUCUCUGAGAGAAACGCC [U1A A50G A69G U143C]: the self-cleavage amounted to 0.

Turning to UACGUAGGUGGUUUUCCCCUGAUAGUGCUAAGGGGGCCGGGAAGUUUGGACUGGGCAGAGCUCAACACAGCGUGGCAAAGUGGCUGUGGCUAGACUGCCUCUCUGGACUCCUCGUCACUCAGCAGGGCAUCUCUGAGAGGAAUGCC [U39G U108C A140G], the self-cleavage is 1.53. The same measure for UACGUAGGUGGUUUUCCCCUGAUAGUGCUAAGGGGGCCUGGAAGUUUGGACAGGGCAGAGCUCAACACAGCGUGGCAAAGUGGCUGCGGCUAGACUGCCUCUCUGGAUUCCUCGUCACUCAGCUGGGCAUCUCUGAGAGAAAUGCC [U52A U87C A124U]: 0.45. As for UACGUAGGCGGUUUUCCCCUGAUAGUGCUAAGGGGGCCUGGAAGUUUGGACUGGGCAGAGCUCAACACAGCGUGGCAAAGUGGCUGUGGCUAGACUGCCUCUCUGGAUUCCUCGUCACUCAGCAGGGCAUCUCUAGGAGAAAUGCC [U9C G135A A136G], the self-cleavage worked out at 0.98. For the variant UACGUAGGUGGUUUUCCCCUGAUGGUGCUAAGGGGGCCUGGAAGUUUGGACUGGGCAGAGCUCAUCACAGCGUGGCAAAGUGGCUGUGGCUAGACUGCCUCUCUGGAUUCCCCGUCACUCAGCAGGUCAUCUCUGAGAGAAAUGCC [A24G A65U U112C G127U], the self-cleavage came to 0.28. To UACGUAGGUGGUUUUCACCUGAUAGAGCUAAGGGGGCCUGGAAGUUUGGACUGGGCAGAGCUCAACACUGCGUGGCAAAGUGGCUGUGGCUAGACUGCCUCUCUGGAUUCCUCGUCACUCAGCAGGGCAUCUCUGAGAGAAAUGCC [C17A U26A A69U] belongs 0.06; to UACGUAGGUGGUUUUCCCCUGACAGUGCUAAGGGGGCCUGGAAGUUUGGACUGGGCAGAGCUCAACACAGCGCGGCAAAGUGGCUGUGGCUAGACUGCCUCUCUGGAUUCCUCGUCACUCAGCGGGGCAUCUCUGAGAGAAAUGCC [U23C U73C A124G], 2.19.

In the case of UACGUAGGUGGUUUUCCCCUGAUAGUGCUAAGGGGGCCUGGAAGUUAGGACUGGGCAGAGCUCAACACAGCGUGGCAAAGUGGCUGUGGCUAGACUGCCUCUCUGGAUACCUCGUCACUCAGCAAGGCGUCUCUGAGAGAAAUGCC [U47A U109A G125A A129G], the self-cleavage is 1.01. As for UACGUAGGUGGUUCUCCCCUGAUAGUGCUAAGGGGGCCUGGAAGUUUGGACUGGGCUGAGCUCAACACAGCGUGGCAAAGUGGCUGUGGCUAGACUGCCUCUCUGGAUUCCUCGUCACUCAGCAGGGCAUCUCUGAGAGAUAUGCC [U14C A57U A141U], the self-cleavage came to 0.14. To UACGUAGGUGGUUUUCCCCUGAUAGUGCUAAGGGGGCCUGGAAGUUUGGACUGGGCAUAGCUCAACACAGCGUGGCAAAGUAGCUGUGGCUAGACUGCCUCUCUGGAUUCCUCGUCACUCAGCAGGGCAUCUCUGAGAGAAAAGCC [G58U G82A U143A] belongs 0.05; to UACAUAGGUGGUUUUCCCCUGAUAGUGCUAAGGGGGCCUGGAAGUUUGGACUGGGCAGAGCUCAACACAGCGCGGCAAAGCGGCUGUGGCUAGACUGCCUCUCUGGAUUCCUCGUCACUCAGCAGGGCAUCUCUGAGAGAAAUGCC [G4A U73C U81C], 1.67. The same measure for UACGUAGGUGGCUUUCCCCCGAUAGUGCUAAGGGGGCCUGGAAGUUAGGACUGGGCAGAGCUCGACACAGCGUGGCAAAGUGACAGUGGCUAGACUGCCUCUCUGGAUUCCUCGUCACUCAGCAGGGCAUCUCUGAGAGAAAUGCC [U12C U20C U47A A64G G83A U85A]: 0.27; for UACGUAGGUGGUUCUCCCCUGAUAGCGCUAAGGGGGCCUGGAAGUUUGGACUGGGCAGAGCUCAACACAGCGUGGCAAAGUGGCUGUGGCUAGACUGACUCUCUGGAUUCCCCGUCACCCAGCAGGGCACCUCUGAGAGAAAUGCC [U14C U26C C98A U112C U119C U130C]: 0.46; for UACGUAGGUGGCUUUCCCCUGAUAGUGCUAAGGGGGCCUGGAAGUUUGGACUGGGCAGAGCUCAACACAGCGCGGCAAAGUGGCUGUGGCUAGACUGCCUCUCUGGAUUCCUCGUCACUCAGCCGGGCAUCUCUGAGAGAAAUGCC [U12C U73C A124C]: 0.54. To UACGUAGGUGGUUUUCCCCUGAUAGUGCUAUGGGGGCCUGGAAGUUCGGACUGGGCAGAGCUCAACACAGCGUGGCAAAGUGGCUGUGGCUAGACUGCCUCUCUGGAUUCCUCGUCACUCAGCAGGGCAUCUCCGAGAGAAAUGCC [A31U U47C U134C] belongs 0.72; to UACGUAGGUGGUUUUCCCCCGAUAGUGCUAAGGGGGCCUGGAAGUUUGGACCGGGCAGAGCUCAACACAGCGUGGCAAAGUGGCUGUGGCUAGACUGCCUCUCUGGAUUCCUCGUCACUCAGCAGGGCACCUCUGAGAGAAAUGCC [U20C U52C U130C], 0; to UACGUAGGUGGUUUUCCCCUGGUAGUACUAAGGGGGCCUGGAAGUUUGGACUGGGCAGAGCUCAACACAACGUGGCAAAGUGGCUGUGGCUAGACUGCCUCUCUGGAUUCCUCGACACUCAGCAGGGCAUCUCUGAGAGAAAUGCC [A22G G27A G70A U115A], 0.07.

Consider UACGUAGGUGGUUUUCCCCUGAUAGUGCUAGGGGGGCCUGGGAGUUUGGACUGGGCAGAGCUCAACACAGCGUAGCAAAGUGGCUGUGGCUAGACUGCCUCUCUGGAUUCCUCGUCACUCAGCAGGGCAUCUCUGAGAGAAAUGCC [A31G A42G G74A], for which the self-cleavage was 1.17. To UACGUAGGUGGUUUUCCCCUGAUAGUGCUAAGGGGGCCUGGAAGUUUGGACUGAGCAGUGCUCAACACAGCGUGGCAAAGUGGCUGUGGCUAGACUGCCUCUCUGGAUUCCUCGUCACUCAGCAGGGCAUCUCUGAGAGGAAUGCC [G54A A59U A140G] belongs 0.29; to UACGUGGGUGGGUUUCCCCUGAUAGUGCUAAGGGGGCCUGGAAGUUUGGACUGGGCAGAGCUCAACACAGCGUGGCUAAGUGGCUGUGGCUAGACUGCCUCUCUGGAUUCCUCGUCACUCAGCAGGGCAUCUCAGAGAGAAAUGCC [A6G U12G A77U U134A], 0.8; to UACGUAGGUGGUUCUCCCCUGAUAGUGCUAAGGGGGCCUGGAAGUUUGGACUGGGCAGAGCUCAACACAGCGUGGCAAAGUGGCUGUGGCUAGACUGCCUCUCUGGAUUCCUCGUCACUCAGCAGGGCAUCCCUGAGAGUAAUGCC [U14C U132C A140U], 1.51. To UACGUAGGUGGUUUUCCCCUGAUAGUGCUAAGGGGGCCUGGAAGUUUGGACUGGGCAGAGCUCAACUCAGCGUGGCAAAGUGGCCGUGGCUAGGCUGCCUCUCUGGAUUCCUCGACACUCAGCAGGGCAUCUCUGAGAGAGAUGCC [A67U U85C A94G U115A A141G] belongs 0.
